This is an account of results in the BET-seq Pho4 binding data (Le et al. 2018).

The list shows a part of the results. The energies were worked out here from pooled read counts, against the library average; single values are noisy.

This test deals with T1, Pho4 (S. cerevisiae) (UniProt P07270).
T1 sequence: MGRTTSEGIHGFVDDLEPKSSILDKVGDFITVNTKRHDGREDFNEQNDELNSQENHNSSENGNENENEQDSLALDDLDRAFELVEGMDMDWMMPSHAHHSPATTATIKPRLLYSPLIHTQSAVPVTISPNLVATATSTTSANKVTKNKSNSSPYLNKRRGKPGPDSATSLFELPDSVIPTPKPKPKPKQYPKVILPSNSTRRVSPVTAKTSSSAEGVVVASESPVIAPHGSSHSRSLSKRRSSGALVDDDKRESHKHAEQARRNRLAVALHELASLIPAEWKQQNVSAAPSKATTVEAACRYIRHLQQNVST
As to the kind of experiment: relative binding free energy (BET-seq); higher = weaker binding. The conditions noted are these: reference: library average.
Turning to GGAGTCACGTGTTAGC, the “relative binding free energy” value turned out to be 0.21 kcal/mol.

Consider CCATGCACGTGTTGGG, for which the “relative binding free energy” value was -0.08 kcal/mol.

As to AGGGTCACGTGACGGT, the “relative binding free energy” value worked out at 0.2 kcal/mol.

Regarding CAATGCACGTGGGAGG, the “relative binding free energy” value was -0.07 kcal/mol.

Turning to TTGGTCACGTGGTGTT, the “relative binding free energy” value is 0.11 kcal/mol.

In the case of TAGATCACGTGGTGCG, the “relative binding free energy” value turned out to be 0.15 kcal/mol.

Consider GGTTTCACGTGTGCTT, for which the “relative binding free energy” value turned out to be 0.19 kcal/mol.

Consider CTTATCACGTGTGTGA, for which the “relative binding free energy” value came to 0.2 kcal/mol.

Consider GTTGACACGTGGTGCG, for which the “relative binding free energy” value is -0.13 kcal/mol.

Turning to AGAGGCACGTGATTTG, the “relative binding free energy” value is -0.2 kcal/mol.

GGGATCACGTGCTATG: the “relative binding free energy” value amounted to 0.08 kcal/mol.

In the case of ACTATCACGTGGGTGG, the “relative binding free energy” value is -0.12 kcal/mol.

With ATTGGCACGTGGGTCG, the “relative binding free energy” value was -0.33 kcal/mol.

As for CGAATCACGTGTGTTT, the “relative binding free energy” value was 0.11 kcal/mol.

On to TGTCTCACGTGGGGGT, for which the “relative binding free energy” value was found to be 0.08 kcal/mol.

Consider CGTGTCACGTGAATAG, for which the “relative binding free energy” value was determined as 0.24 kcal/mol.

On to GGGGTCACGTGGACTT, for which the “relative binding free energy” value was 0.27 kcal/mol.

As to TTGATCACGTGGTTAT, the “relative binding free energy” value was determined as 0.14 kcal/mol.

Turning to GGTTGCACGTGTTATA, the “relative binding free energy” value was determined as 0.07 kcal/mol.

With CGGTGCACGTGGCGCG, the “relative binding free energy” value was -0.13 kcal/mol.

Consider GTATACACGTGTTCAT, for which the “relative binding free energy” value amounted to 0.1 kcal/mol.

As to TGGTGCACGTGGACGG, the “relative binding free energy” value is -0.05 kcal/mol.

On to ATTGACACGTGGAGGA, for which the “relative binding free energy” value stood at 0.01 kcal/mol.

On to GTAGTCACGTGGTCTA, for which the “relative binding free energy” value came out at 0.06 kcal/mol.

As to GATACCACGTGGGGGT, the “relative binding free energy” value is -0.16 kcal/mol.

For ACGAACACGTGGGTGT, the “relative binding free energy” value is -0.16 kcal/mol.

As for TCGGTCACGTGAGGCG, the “relative binding free energy” value is 0.21 kcal/mol.

Consider AGGGTCACGTGGATAC, for which the “relative binding free energy” value came out at 0.18 kcal/mol.

Turning to GTAGCCACGTGGAAGT, the “relative binding free energy” value came to 0.13 kcal/mol.

Regarding CGTAGCACGTGGGTGC, the “relative binding free energy” value is -0.25 kcal/mol.

As for TGTACCACGTGGATGG, the “relative binding free energy” value is -0.18 kcal/mol.

Turning to GTGTGCACGTGCGTTG, the “relative binding free energy” value is -0.03 kcal/mol.

As for AGTTGCACGTGTGTCG, the “relative binding free energy” value is 0.08 kcal/mol.

GTTTTCACGTGGTCAA: the “relative binding free energy” value worked out at 0.18 kcal/mol.

Regarding TCTATCACGTGCTTGG, the “relative binding free energy” value came to 0.11 kcal/mol.

On to AGGCTCACGTGGGTGC, for which the “relative binding free energy” value stood at 0.04 kcal/mol.

Turning to TAAGGCACGTGTGTGA, the “relative binding free energy” value is -0.15 kcal/mol.

Consider TAATTCACGTGAACGT, for which the “relative binding free energy” value came out at 0.33 kcal/mol.

Regarding TTTACCACGTGTTGTA, the “relative binding free energy” value is -0.22 kcal/mol.

On to ATTTTCACGTGATAAG, for which the “relative binding free energy” value turned out to be 0.32 kcal/mol.

Regarding TTATACACGTGGGTGA, the “relative binding free energy” value is -0.04 kcal/mol.

As to TGTGACACGTGTGTAG, the “relative binding free energy” value was 0 kcal/mol.

For GGTGTCACGTGTAAAA, the “relative binding free energy” value was determined as 0.13 kcal/mol.

For CTGAGCACGTGTGAGT, the “relative binding free energy” value was -0.09 kcal/mol.

For the sequence TAGTTCACGTGAGAGA, the “relative binding free energy” value amounted to 0.46 kcal/mol.

On to TGCTGCACGTGTGTTG, for which the “relative binding free energy” value came to 0.04 kcal/mol.

Take GGGGCCACGTGATTGA: the “relative binding free energy” value amounted to 0.05 kcal/mol.

For the sequence TAGTGCACGTGCGGCA, the “relative binding free energy” value is -0.14 kcal/mol.

Take TAGGTCACGTGTATTA: the “relative binding free energy” value was 0.04 kcal/mol.

On to AGATACACGTGAGTGT, for which the “relative binding free energy” value stood at 0.05 kcal/mol.

For the sequence TCTGGCACGTGATTAG, the “relative binding free energy” value was -0.03 kcal/mol.

In the case of GACGGCACGTGCGAGG, the “relative binding free energy” value amounted to 0.04 kcal/mol.

In the case of TGGCTCACGTGTCGTA, the “relative binding free energy” value worked out at 0.22 kcal/mol.

For GGTGGCACGTGGCAGT, the “relative binding free energy” value is -0.11 kcal/mol.

On to ACGGCCACGTGTGTGG, for which the “relative binding free energy” value was 0.01 kcal/mol.

On to TTGAACACGTGGTGAA, for which the “relative binding free energy” value was 0 kcal/mol.

For the sequence TGGAACACGTGTGTGG, the “relative binding free energy” value was 0.09 kcal/mol.

In the case of TGTTTCACGTGTACTG, the “relative binding free energy” value worked out at 0.09 kcal/mol.

AATTCCACGTGTTTTG: the “relative binding free energy” value was 0.19 kcal/mol.

For the sequence ATAGCCACGTGGTGTT, the “relative binding free energy” value is -0.26 kcal/mol.

Regarding TCAAGCACGTGATGGT, the “relative binding free energy” value is -0.08 kcal/mol.

On to TGTTACACGTGAGGTA, for which the “relative binding free energy” value was found to be 0.11 kcal/mol.

GGCGTCACGTGGGTCT: the “relative binding free energy” value is -0.08 kcal/mol.

With GTGTTCACGTGGAAGG, the “relative binding free energy” value was determined as 0.35 kcal/mol.

Regarding GTGTGCACGTGATGGA, the “relative binding free energy” value worked out at 0.18 kcal/mol.

On to TAGCTCACGTGTGGTG, for which the “relative binding free energy” value stood at 0.29 kcal/mol.

In the case of GATAGCACGTGTGGGT, the “relative binding free energy” value stood at 0.04 kcal/mol.

Take AATTGCACGTGGTGTC: the “relative binding free energy” value is -0.11 kcal/mol.

On to CAGGCCACGTGGTGTG, for which the “relative binding free energy” value is -0.25 kcal/mol.

In the case of GTATGCACGTGATGCG, the “relative binding free energy” value is -0.12 kcal/mol.

As for GTTTACACGTGGAGTT, the “relative binding free energy” value turned out to be 0.24 kcal/mol.

Consider GTCTGCACGTGATAGG, for which the “relative binding free energy” value came to 0.19 kcal/mol.

For GTTTTCACGTGAAATA, the “relative binding free energy” value amounted to 0.31 kcal/mol.

On to TAGGTCACGTGTAATT, for which the “relative binding free energy” value came to 0.17 kcal/mol.

As to TTCGGCACGTGGGTTC, the “relative binding free energy” value was -0.1 kcal/mol.

For CAATACACGTGTGGGG, the “relative binding free energy” value was determined as 0.19 kcal/mol.

Regarding TTGGGCACGTGGTTCG, the “relative binding free energy” value was -0.1 kcal/mol.

With TTACTCACGTGGTTAG, the “relative binding free energy” value amounted to 0.01 kcal/mol.

As for GGTTACACGTGCATGA, the “relative binding free energy” value is 0.24 kcal/mol.

For the sequence TCGTGCACGTGTATAG, the “relative binding free energy” value is 0.02 kcal/mol.

Regarding ATTGCCACGTGGGGTG, the “relative binding free energy” value is -0.26 kcal/mol.

As to TTAATCACGTGAGGTC, the “relative binding free energy” value stood at 0.32 kcal/mol.

Consider AGAAACACGTGGGAGT, for which the “relative binding free energy” value is -0.07 kcal/mol.

For AGTTACACGTGGGAGG, the “relative binding free energy” value was 0 kcal/mol.

On to CGTGGCACGTGTAGAA, for which the “relative binding free energy” value was found to be 0.03 kcal/mol.

As for TGGATCACGTGTTTAA, the “relative binding free energy” value is 0.16 kcal/mol.

With AGTGTCACGTGCTTTG, the “relative binding free energy” value was -0.04 kcal/mol.

On to TTAATCACGTGAGTAG, for which the “relative binding free energy” value turned out to be 0.29 kcal/mol.

In the case of ATATGCACGTGTAGCT, the “relative binding free energy” value was -0.05 kcal/mol.

GAGTCCACGTGATTTG: the “relative binding free energy” value was found to be 0.32 kcal/mol.

In the case of TGTTGCACGTGATTGT, the “relative binding free energy” value turned out to be 0.15 kcal/mol.

For ATCTTCACGTGCGTGG, the “relative binding free energy” value is 0.07 kcal/mol.

TCGTTCACGTGGGTGA: the “relative binding free energy” value amounted to 0.22 kcal/mol.

As for GTGGTCACGTGCTTGT, the “relative binding free energy” value was 0.14 kcal/mol.

As to CGAGTCACGTGTGGTC, the “relative binding free energy” value is 0.18 kcal/mol.

On to GATTGCACGTGTTGAT, for which the “relative binding free energy” value was found to be 0.18 kcal/mol.

As to AGACACACGTGAGGGG, the “relative binding free energy” value turned out to be 0.09 kcal/mol.

In the case of GTCATCACGTGTGTGC, the “relative binding free energy” value came to 0.27 kcal/mol.

With ATCGTCACGTGTAATG, the “relative binding free energy” value was determined as 0.23 kcal/mol.

Turning to CGGTGCACGTGAGTGT, the “relative binding free energy” value stood at 0.19 kcal/mol.

ACTTTCACGTGTTGTT: the “relative binding free energy” value came to 0.18 kcal/mol.

For the sequence AAGTTCACGTGAGGCT, the “relative binding free energy” value was determined as 0.46 kcal/mol.

For the sequence CATTTCACGTGAATGG, the “relative binding free energy” value turned out to be 0.55 kcal/mol.

With CGGGTCACGTGAAGTA, the “relative binding free energy” value amounted to 0.44 kcal/mol.

As for TGGTTCACGTGGGTTT, the “relative binding free energy” value is 0.27 kcal/mol.

Consider CGTTTCACGTGGGCGG, for which the “relative binding free energy” value came out at 0.14 kcal/mol.

In the case of ATGTCCACGTGGTTGG, the “relative binding free energy” value was -0.06 kcal/mol.

In the case of ACGTGCACGTGAGGAG, the “relative binding free energy” value is -0.01 kcal/mol.

Take TAGGTCACGTGGGGAA: the “relative binding free energy” value turned out to be 0.03 kcal/mol.

Consider ATTGTCACGTGCATGA, for which the “relative binding free energy” value was -0.08 kcal/mol.

For GGTTGCACGTGTGCGG, the “relative binding free energy” value turned out to be 0.05 kcal/mol.

With AGGAGCACGTGCGCGG, the “relative binding free energy” value is -0.23 kcal/mol.

On to TGGGTCACGTGATTTC, for which the “relative binding free energy” value was 0.38 kcal/mol.

Regarding TGATTCACGTGAGGGA, the “relative binding free energy” value came out at 0.27 kcal/mol.

As for AGAGGCACGTGTAGGG, the “relative binding free energy” value was -0.08 kcal/mol.
